These results are taken from the supplement of paper PMC3334620.

Over roughly 33,000 sequences, “E-score (-0.5 to 0.5)” has its median near -0.054; the highest 2% begin near 0.35. The list shows a part of the results.

The target in the experiment is T1, Stb5 (UniProt P38699).
T1 sequence: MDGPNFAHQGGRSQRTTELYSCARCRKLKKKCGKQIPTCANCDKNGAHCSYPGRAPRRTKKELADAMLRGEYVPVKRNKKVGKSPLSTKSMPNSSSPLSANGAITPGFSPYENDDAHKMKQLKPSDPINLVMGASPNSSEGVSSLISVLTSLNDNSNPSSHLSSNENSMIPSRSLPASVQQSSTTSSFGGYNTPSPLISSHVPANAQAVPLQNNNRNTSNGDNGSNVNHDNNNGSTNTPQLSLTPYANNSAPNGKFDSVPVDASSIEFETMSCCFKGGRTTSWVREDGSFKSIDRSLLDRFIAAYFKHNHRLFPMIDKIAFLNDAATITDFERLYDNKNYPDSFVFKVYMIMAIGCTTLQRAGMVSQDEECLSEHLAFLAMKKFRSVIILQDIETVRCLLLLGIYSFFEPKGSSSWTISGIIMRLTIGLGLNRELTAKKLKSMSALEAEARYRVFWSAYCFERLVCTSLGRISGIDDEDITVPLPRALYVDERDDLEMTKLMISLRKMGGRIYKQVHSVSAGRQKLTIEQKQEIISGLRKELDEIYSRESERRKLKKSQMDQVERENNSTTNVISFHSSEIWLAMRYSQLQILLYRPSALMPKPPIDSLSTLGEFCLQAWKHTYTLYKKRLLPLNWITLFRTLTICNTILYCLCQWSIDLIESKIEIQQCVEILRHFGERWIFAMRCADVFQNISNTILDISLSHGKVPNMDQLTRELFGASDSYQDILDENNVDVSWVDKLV
Put plainly: PBM E-score (8-mer binding enrichment) (E-score (-0.5 to 0.5)); higher = stronger / more preferred TF binding; most listed sequences are background and not binding sites. Conditions: protein concentration: 200 nM; construct: GST-full length. The gist of the method: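 The E-score, a modified Wilcoxon-Mann-Whitney statistic, was computed by the Universal PBM Analysis Suite for every ungapped eight-base word pooled with its reverse complement. Scans behind it were normalised with masliner after bound GST-tagged yeast transcription factors were detected with fluorescent anti-GST. The proteins, at about 100-200 nM, had been applied to universal all-10-mer Agilent arrays made double-stranded by primer extension.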
For TCCACACA, the “PBM E-score” value was -0.0936.

As to AGATCGAC, the “PBM E-score” value was -0.103.

Take AAATTCGA: the “PBM E-score” value was found to be 0.0745.

Turning to GGCATTGA, the “PBM E-score” value turned out to be 0.216.

For the sequence GCCAAGGC, the “PBM E-score” value was -0.22.

For CAGTGTCG, the “PBM E-score” value is 0.0936.

Regarding CTAAAAAG, the “PBM E-score” value was -0.0674.

As to ATGCACTG, the “PBM E-score” value was -0.241.

With AATATTTA, the “PBM E-score” value was -0.169.

On to CACCTCGC, for which the “PBM E-score” value stood at 0.0627.

As for AGTTATTG, the “PBM E-score” value is -0.0485.

CAAGCGTA: the “PBM E-score” value was -0.179.

Regarding CCCTGCAA, the “PBM E-score” value was -0.151.

Take CTTAACAC: the “PBM E-score” value was 0.075.

Regarding AAGCCCTA, the “PBM E-score” value was -0.0699.

As to ACGGGAGT, the “PBM E-score” value is 0.209.

As for CACATTCC, the “PBM E-score” value amounted to 0.178.

With CCCATAGG, the “PBM E-score” value is -0.136.

Regarding CCTTGGCA, the “PBM E-score” value was -0.227.

As to GTATCAAA, the “PBM E-score” value was -0.101.

Take ACGGTTGC: the “PBM E-score” value was -0.0121.

In the case of GTTATCGA, the “PBM E-score” value was -0.0558.

In the case of ATGCGCGC, the “PBM E-score” value worked out at 0.127.

For ACTTAAAA, the “PBM E-score” value amounted to 0.169.

For the sequence CGGCTATC, the “PBM E-score” value came to 0.183.

With CTGGCCAA, the “PBM E-score” value is -0.22.

For the sequence AAGGGGCC, the “PBM E-score” value worked out at 0.0126.

With AGAGAACA, the “PBM E-score” value was -0.297.

Turning to ACATAGCC, the “PBM E-score” value turned out to be 0.00889.

For CCCGCTGA, the “PBM E-score” value was determined as 0.27.

In the case of ATTCCCGC, the “PBM E-score” value turned out to be 0.4.

On to CCCTATTC, for which the “PBM E-score” value came out at 0.0812.

For AGGAGCCG, the “PBM E-score” value was 0.0365.

For the sequence AGGCAGAG, the “PBM E-score” value is -0.303.

In the case of GGTGGTCA, the “PBM E-score” value is -0.0287.

With ACTCCACC, the “PBM E-score” value was -0.107.

Turning to ATCTTTTC, the “PBM E-score” value is -0.117.

On to TGTGGAAA, for which the “PBM E-score” value is -0.0271.

For AACTATTC, the “PBM E-score” value was determined as 0.00015.

On to ACCTGCCT, for which the “PBM E-score” value was -0.151.

Consider ATACGGAA, for which the “PBM E-score” value was 0.18.

On to CTAGATAG, for which the “PBM E-score” value was -0.127.

On to AGTCACGC, for which the “PBM E-score” value is -0.138.

For the sequence CCGATCGA, the “PBM E-score” value was determined as 0.285.

In the case of GATAGAAA, the “PBM E-score” value was found to be 0.0191.

On to TCCCAGGA, for which the “PBM E-score” value is -0.129.

As for GAATTCCA, the “PBM E-score” value was -0.0966.

In the case of AAATCTTC, the “PBM E-score” value is -0.0716.

For AGAGAACC, the “PBM E-score” value is -0.125.

As to ACTTGGGC, the “PBM E-score” value is 0.00016.

With CCTAAGAG, the “PBM E-score” value is -0.15.

With TGGCCCCA, the “PBM E-score” value was -0.308.

CGGCAGTA: the “PBM E-score” value came out at 0.4.

Turning to AGGTAGAG, the “PBM E-score” value is -0.118.

Take ACAGCGAC: the “PBM E-score” value was determined as 0.168.

Take ATTCCCGG: the “PBM E-score” value was found to be 0.319.

Regarding AAAAATAA, the “PBM E-score” value amounted to 0.0182.

Take TTAAGAAA: the “PBM E-score” value is -0.105.

Consider CCCGGTCC, for which the “PBM E-score” value stood at 0.238.

Take AGAAAATA: the “PBM E-score” value was determined as 0.047.

As to CACGTGGG, the “PBM E-score” value is -0.179.

In the case of GCTCAAGC, the “PBM E-score” value is -0.0534.

In the case of GGCCCATA, the “PBM E-score” value turned out to be 0.00356.

GGACGCTA: the “PBM E-score” value is -0.0496.

As for AAGCTTGC, the “PBM E-score” value was -0.243.

On to ACCGCGAC, for which the “PBM E-score” value is 0.29.

As to CCGTAGAA, the “PBM E-score” value was -0.0331.
